From publication PMC3433420
A number of entries come with more than one value. The list is limited to them. An entry can have further records. For part of these data: Values given together read as repeated measurements on other runs, samples or individuals. For part of these data: Results that share an entry seem to repeat one measurement; a mean can stand among them.

Legend:
Assay in all cases: peptide or protein array; SH2/PTB proteins spotted on aldehyde slides, rhodamine peptide titrated in buffer B (20 mM HEPES, 100 mM KCl, 0.1% Tween-20, 5 mM DTT, pH 7.8), 1 h at room temperature; replicate assays
[1] = target: PIK3R3 tandem SH2 domains (human)
ITK SH2 domain (human) = ITK SH2 domain (human) (UniProt Q08881)
LCK SH2 domain (human) = LCK SH2 domain (human) (UniProt P06239)
[2] = target: ZAP70 C-terminal SH2 domain (human) (UniProt P43403)
[3] = target: SH2D1B SH2 domain (human) (UniProt O14796)
[4] = target: SH3BP2 SH2 domain (human) (UniProt P78314)
[5] = target: PLCG2 tandem SH2 domains (human)
YES1 SH2 domain (human) = YES1 SH2 domain (human) (UniProt P07947)
BLK SH2 domain (human) = BLK SH2 domain (human) (UniProt P51451)
[6] = target: SH2D1A SH2 domain (human) (UniProt O60880)
TEC SH2 domain (human) = TEC SH2 domain (human) (UniProt P42680)
SRC SH2 domain (human) = SRC SH2 domain (human) (UniProt P12931)
TNS3 SH2 domain (human) = TNS3 SH2 domain (human) (UniProt Q68CZ2)
ABL2 SH2 domain (human) = ABL2 SH2 domain (human) (UniProt P42684)
Sequence of UniProt P42684 (P42684 173-263): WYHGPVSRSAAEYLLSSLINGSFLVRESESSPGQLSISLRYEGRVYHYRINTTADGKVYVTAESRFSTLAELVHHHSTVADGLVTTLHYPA

Sequence of UniProt P42680 (P42680 247-345): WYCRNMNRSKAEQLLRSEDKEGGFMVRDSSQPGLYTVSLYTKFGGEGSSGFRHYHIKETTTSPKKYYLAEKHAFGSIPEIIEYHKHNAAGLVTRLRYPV
Sequence of UniProt P78314 (P78314 457-555): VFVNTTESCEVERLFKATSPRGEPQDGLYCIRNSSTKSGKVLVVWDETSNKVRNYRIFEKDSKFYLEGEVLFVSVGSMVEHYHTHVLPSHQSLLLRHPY
Sequence of UniProt Q08881 (Q08881 239-338): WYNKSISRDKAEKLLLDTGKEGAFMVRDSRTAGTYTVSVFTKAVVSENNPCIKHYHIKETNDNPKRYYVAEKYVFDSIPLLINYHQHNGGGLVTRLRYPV
Sequence of UniProt P51451 (P51451 124-220): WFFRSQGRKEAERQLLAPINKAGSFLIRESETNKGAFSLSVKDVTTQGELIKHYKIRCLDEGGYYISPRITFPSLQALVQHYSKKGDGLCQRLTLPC
Sequence of UniProt P07947 (P07947 158-255): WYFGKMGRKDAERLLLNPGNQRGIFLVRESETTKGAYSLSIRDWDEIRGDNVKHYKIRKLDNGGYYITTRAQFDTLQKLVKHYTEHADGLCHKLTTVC
Sequence of UniProt O60880 (O60880 6-104): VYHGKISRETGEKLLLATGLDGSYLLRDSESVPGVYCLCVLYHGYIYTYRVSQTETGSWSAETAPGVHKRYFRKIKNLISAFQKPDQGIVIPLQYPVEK
Sequence of UniProt O14796 (O14796 5-101): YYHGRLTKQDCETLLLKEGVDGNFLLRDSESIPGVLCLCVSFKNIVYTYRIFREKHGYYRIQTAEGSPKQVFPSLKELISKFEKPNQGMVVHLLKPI
Sequence of UniProt P06239 (P06239 127-224): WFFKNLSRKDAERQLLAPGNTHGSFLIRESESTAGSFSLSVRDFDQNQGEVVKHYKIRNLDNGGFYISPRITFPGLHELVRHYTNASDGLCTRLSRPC
Sequence of UniProt P43403 (P43403 whole entry, the tested form may be a part): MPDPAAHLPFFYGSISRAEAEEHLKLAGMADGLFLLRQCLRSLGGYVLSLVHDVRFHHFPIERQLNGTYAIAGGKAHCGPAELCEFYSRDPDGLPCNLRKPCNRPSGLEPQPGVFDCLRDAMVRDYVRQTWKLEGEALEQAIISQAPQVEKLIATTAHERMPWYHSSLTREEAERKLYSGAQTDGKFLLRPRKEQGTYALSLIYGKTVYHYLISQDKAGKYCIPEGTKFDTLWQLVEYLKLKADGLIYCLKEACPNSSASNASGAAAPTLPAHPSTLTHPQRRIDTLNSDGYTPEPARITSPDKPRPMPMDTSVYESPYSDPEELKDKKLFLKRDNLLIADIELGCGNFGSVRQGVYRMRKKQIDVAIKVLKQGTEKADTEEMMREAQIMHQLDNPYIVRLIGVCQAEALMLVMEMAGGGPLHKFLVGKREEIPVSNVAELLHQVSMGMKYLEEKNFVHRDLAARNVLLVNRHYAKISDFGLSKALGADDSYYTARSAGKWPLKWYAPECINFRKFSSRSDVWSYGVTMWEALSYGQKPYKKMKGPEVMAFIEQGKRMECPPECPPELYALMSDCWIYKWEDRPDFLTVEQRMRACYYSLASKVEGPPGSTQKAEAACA
Sequence of UniProt Q68CZ2 (Q68CZ2 1172-1282): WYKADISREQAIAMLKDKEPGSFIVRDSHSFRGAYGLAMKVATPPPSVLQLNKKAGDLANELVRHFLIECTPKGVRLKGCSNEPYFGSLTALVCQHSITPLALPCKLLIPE

Substance | Kd [1] | Kd (ITK SH2 domain (human)) | Kd [3] | Kd [4] | Kd [5] | Kd (YES1 SH2 domain (human)) | Kd (BLK SH2 domain (human)) | other results
ErbB2 pY735 phosphopeptide, rhodamine-labelled, for protein microarrays | 0.805 nM and 1.01 µM [lines of one column] | 2.03 µM and 29.4 µM [lines of one column] | 1.17 µM and 44.8 nM [lines of one column] | – | – | – | – | Kd (LCK SH2 domain (human)): 731 nM and 11.9 µM [lines of one column]; Kd [2]: 812 nM and 20 µM [lines of one column]
ErbB3 pY789 phosphopeptide, rhodamine-labelled, for protein microarrays | 380 nM, 6.77 µM, 64.5 nM [lines of one column] | – | 1.83 µM, 1.6 µM, 70 nM [lines of one column] | 588 nM, 50 nM, 2.46 µM [lines of one column] | 801 nM, 388 nM, 80 nM [lines of one column] | 1.44 µM, 518 nM, 60 nM [lines of one column] | 2.25 µM, 1.3 µM, 30 nM [lines of one column] | Kd [6]: 220 nM, 2.68 µM, 678 nM [lines of one column]
ErbB4 pY733 phosphopeptide (18-mer), rhodamine-labelled, for protein microarrays | – | 9.63 µM, 1.61 µM, 814 nM [lines of one column] | – | 50.1 µM, 12.8 µM, 802 nM [lines of one column] | 801 nM, 10.3 µM, 2.26 µM [lines of one column] | – | 1.75 µM, 7.18 µM, 401 nM [lines of one column] | Kd (TEC SH2 domain (human)): 23 µM, 2.14 µM, 1.62 µM [lines of one column]; Kd (SRC SH2 domain (human)): 12.2 µM, 4.2 µM, 1.21 µM [lines of one column]; Kd (TNS3 SH2 domain (human)): 54.1 µM and 794 nM [lines of one column]
ErbB4 pY1202 phosphopeptide (18-mer), rhodamine-labelled, for protein microarrays | – | – | – | 1.61 µM, 15.9 µM, 495 nM, 2.06 µM [lines of one column] | – | 1.61 µM, 417 nM, 350 nM, 1.44 µM [lines of one column] | 2.29 µM, 2.39 µM, 447 nM, 7.84 µM [lines of one column] | –
ErbB4 pY1301 phosphopeptide (18-mer), rhodamine-labelled, for protein microarrays | – | – | – | – | 815 nM and 8.37 µM [lines of one column] | – | – | Kd (ABL2 SH2 domain (human)): 1.03 µM and 0.68 nM [lines of one column]
